According to the supplement of paper PMC7826260:
This is one part of the list. Viral Rep nickase domains cut single-stranded DNA in vitro for 1 h at 37 °C with 3 µM enzyme; only the middle of the 90-letter strands is printed. A value is the log2 ratio of uncut reads to the pool without enzyme; more negative means more cut, near 0 not cut, and no call is made. The scaling is to total reads; values above 0 arise when much of the pool is cut.

Columns and labels:
Assay in all cases: uncleaved DNA left, log2 of reads against the no-enzyme library (log2 ratio); higher = less cleavage (more negative = more Rep cleavage of the k-mer); sequences stand for … in CTCGTCCG…ACCGGAGA
[1] = test system: T1, Rep nickase domain of Muscovy duck circovirus
T1 sequence (Rep 1-111, printed without the tag): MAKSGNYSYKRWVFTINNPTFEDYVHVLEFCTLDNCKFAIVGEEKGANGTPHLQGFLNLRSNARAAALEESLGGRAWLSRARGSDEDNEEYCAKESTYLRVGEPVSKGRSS
Protocol: (§1)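 A pool of 90-nt single-stranded DNAs with seven random bases just before the constant AC of the nick site (name = the seven bases) was cut by 3 µM recombinant His6-SUMO-tagged Rep nickase domain (300 nM DNA, 50 mM HEPES pH 8.0, 50 mM NaCl, 1 mM MnCl2, 1 h, 37 °C, three replicates). Uncut DNA was amplified and sequenced.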

[2] = test system: T2, Rep nickase domain of banana bunchy top virus
T2 sequence (Rep 1-94, printed without the tag): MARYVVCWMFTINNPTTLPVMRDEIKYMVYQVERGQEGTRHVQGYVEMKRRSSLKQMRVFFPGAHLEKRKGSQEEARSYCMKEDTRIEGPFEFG
Protocol: as §1

[3] = test system: T3, Rep nickase domain of cabbage leaf curl virus
T3 sequence (Rep 1-116, printed without the tag): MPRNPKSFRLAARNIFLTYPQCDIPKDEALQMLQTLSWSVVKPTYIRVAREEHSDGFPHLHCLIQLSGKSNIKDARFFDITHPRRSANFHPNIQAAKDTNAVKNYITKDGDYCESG
Protocol: as §1

[4] = test system: T4, Rep nickase domain of chickpea chlorotic dwarf virus
T4 sequence (Rep 1-124, printed without the tag): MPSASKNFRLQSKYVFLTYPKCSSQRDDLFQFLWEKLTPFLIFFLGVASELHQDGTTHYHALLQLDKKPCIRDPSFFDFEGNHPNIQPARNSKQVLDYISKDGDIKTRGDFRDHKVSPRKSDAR
Protocol: as §1

[5] = test system: T5, Rep nickase domain of faba bean necrotic yellows virus
T5 sequence (Rep 1-98, printed without the tag): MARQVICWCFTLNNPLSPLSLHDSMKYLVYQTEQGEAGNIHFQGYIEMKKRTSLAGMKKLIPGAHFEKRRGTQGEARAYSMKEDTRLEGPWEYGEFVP
Protocol: as §1

[6] = test system: T6, Rep nickase domain of maize striate mosaic virus
T6 sequence (Rep 1-117, printed without the tag): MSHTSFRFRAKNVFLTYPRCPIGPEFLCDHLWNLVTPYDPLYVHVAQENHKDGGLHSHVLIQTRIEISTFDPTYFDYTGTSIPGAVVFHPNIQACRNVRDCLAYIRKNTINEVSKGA
Protocol: as §1

[7] = test system: T7, Rep nickase domain of porcine circovirus 2
T7 sequence (Rep 2-116, printed without the tag): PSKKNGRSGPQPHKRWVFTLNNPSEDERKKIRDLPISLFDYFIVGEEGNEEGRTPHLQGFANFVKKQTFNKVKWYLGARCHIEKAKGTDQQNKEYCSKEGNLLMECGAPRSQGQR
Protocol: as §1

[8] = test system: T8, Rep nickase domain of tomato yellow leaf curl virus
T8 sequence (Rep 1-136, printed without the tag): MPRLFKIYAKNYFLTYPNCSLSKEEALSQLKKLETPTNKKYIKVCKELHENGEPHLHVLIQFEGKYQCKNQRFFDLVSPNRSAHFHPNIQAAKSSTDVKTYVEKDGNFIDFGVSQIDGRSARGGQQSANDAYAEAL
Protocol: as §1

[9] = test system: T9, Rep nickase domain of wheat dwarf virus
T9 sequence (Rep 1-137, printed without the tag): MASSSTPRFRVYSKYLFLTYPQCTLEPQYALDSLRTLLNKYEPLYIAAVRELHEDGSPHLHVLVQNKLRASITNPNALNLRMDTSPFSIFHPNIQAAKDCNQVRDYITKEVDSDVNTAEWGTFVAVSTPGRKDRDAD
Protocol: as §1

Sequence	uncleaved DNA left (log2) [1]	uncleaved DNA left (log2) [2]	uncleaved DNA left (log2) [3]	uncleaved DNA left (log2) [4]	uncleaved DNA left (log2) [5]	uncleaved DNA left (log2) [6]	uncleaved DNA left (log2) [7]	uncleaved DNA left (log2) [8]	uncleaved DNA left (log2) [9]
AGGAACT	0.0338	0.183	0.25	0.0142	0.0843	1.33	-0.00826	0.119	0.124
ATGCGCT	0.0901	-0.0626	-0.591	-0.866	-0.15	-1.03	0.00154	-0.0517	-0.105
TCGAATA	-0.0404	0.0662	-0.000929	-0.985	0.0433	-0.202	-0.162	0.01	0.0935
CGCCTAA	0.0256	-0.146	-0.251	-0.27	-0.112	-0.474	-0.0499	-0.107	-0.0495
TCATGTG	0.00821	-0.102	-0.806	-0.424	-0.0266	-0.965	0.163	-0.0184	-0.266
GGTACGA	0.0679	0.145	0.773	1.84	-0.093	2.07	0.244	0.142	0.162
AAGTCTA	-0.0268	-0.0657	-0.113	-2.36	-0.0711	0.0809	-2.79	0.0679	-0.00494
TAAGAAC	0.152	0.149	0.0444	-0.764	0.111	-0.281	0.216	0.0601	0.176
CTTATTT	-0.162	0.00912	-0.2	-2.28	-0.0458	-0.764	-0.799	-0.13	-0.019
CCTTAAG	0.104	0.179	-0.704	0.0231	0.129	-0.83	0.325	0.111	-0.102
AGTGAGA	0.0301	0.0277	-0.07	0.0977	0.0543	-0.268	-0.0146	-0.0564	0.0184
CGATGGA	0.0338	-0.0493	-0.0292	0.33	-0.0235	0.39	0.085	0.0172	-0.114
AAGAGCT	0.0627	-0.0521	-0.0278	0.00244	-0.109	0.303	-2.71	-0.0884	-0.0529
GTGGTCG	0.2	-0.00541	-0.254	0.0517	0.0807	-0.334	0.22	0.121	0.0757
CATCGAA	-0.0262	-0.124	-0.529	-0.739	-0.0913	-1.25	-0.0568	-0.188	-0.182
ATCGCGC	-0.00727	-0.021	-0.676	0.137	0.0224	-0.735	0.0851	-0.0144	-0.118
AACTTCC	-0.632	-0.0919	-0.22	-1.02	-0.143	-0.647	-3.21	-0.0584	-0.0508
GCTTACA	0.0213	0.0734	0.0677	-1.12	-0.0315	0.407	0.0474	0.0894	0.0654
ACTGATC	0.191	0.13	0.14	0.62	-0.0962	0.805	0.228	-0.0962	-0.0483
GCTGTGA	0.0309	-0.126	-0.158	0.0221	-0.133	-0.465	0.0555	0.0641	-0.0883
GCACACC	-0.00967	-0.00307	-0.0366	0.029	-0.0431	-0.0487	-0.0643	-0.00509	0.039
GACGGAA	0.157	0.0367	0.404	0.958	0.0933	1.33	0.118	-0.0351	0.106
GATACCC	0.0227	0.0507	0.183	0.566	0.0154	0.493	0.0738	0.0713	0.108
CTGGTAG	0.135	0.0419	-0.803	-0.523	0.0709	-0.946	0.212	0.0421	0.0376
ATCCAGC	-0.00292	-0.0736	-0.451	-0.526	-0.00498	-0.991	0.176	-0.0341	-0.0434
GTCTAAT	-0.218	-0.0015	0.373	0.852	-0.068	1.61	-1.44	-0.0621	0.112
TCATGCC	0.0938	0.0135	-0.46	-0.525	0.105	-1.05	0.207	0.0931	-0.0454
GCAGGTG	-0.131	-0.0959	-0.431	-0.257	-0.0192	-0.768	0.156	-0.149	-0.152
TTCGCTG	0.0138	-0.0308	0.143	0.65	-0.116	1.06	0.0155	-0.193	-0.126
ACAAAAA	-0.00133	-0.0106	-0.0151	0.0771	0.0593	-0.698	0.16	-0.0591	0.0786
